Source: the supplement of paper PMC11417369
± gives the standard deviation of the averaged measurements. The list shows a part of the results.

The sequences below were run on PfAP2-G AP2 domain (GST-tagged) (assay: gcPBM binding intensity (ln(normalized median fluorescence intensity)); higher = stronger DNA binding).
In short: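 Binding intensity is the highest Masliner-normalised natural-log median intensity over replicate spots in either probe orientation. To obtain it, GST-tagged P. falciparum DNA-binding domains made in E. coli were incubated for 1 h on an Agilent 4 × 180k array of primer-extended double-stranded 36-bp intergenic genomic probes plus negative controls. Detection used Alexa488 anti-GST antibody with scanning at 488 nm.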

Sequence | gcPBM binding intensity (ln)
TTAGAAATTCATTTTACACACAATTCAAAAGAATGT [CACACA_site2104] | 9.81 ± 0.014
AAAAAATCAAAACACACACACACACCCAAAAAAAAA [CACACA_site1444] | 10.4 ± 0.23
AAACAATACATATATTGTACATATATTATATTATAT [XGTACX_site8136] | 10.8 ± 0.55
ATAAAATAAAAAAGTAGTACACACTTCACGATATTT [XGTACX_site8289] | 11.5 ± 0.84
ATTATGTTATATATATGTACATATATAATGTTCATA [XGTACX_site6184] | 11.1 ± 0.69
AATAAATAAACAAATTAACACACAGAATTTTTTTTT [CACACA_site8485] | 9.68 ± 0.21
ATAATTATAAAATAAACACACATATATATTTATATG [CACACA_site440] | 9.98 ± 0.16
TTTTAGAGTGATATATATTAACTTTTAATAAAAAAA [CACACA_negctrl_site611] | 9.9 ± 0.25
AAAATATAAGCCACTACACACATATATAAATGTATA [CACACA_site2639] | 10.1 ± 0.23
TTTTTTTAAATTATATGTACATAATTTTAATTTTAT [XGTACX_site5086] | 11.3 ± 0.81
TTGATATCTTTTTTTTGTACATATATTTATAAGTAA [XGTACX_site3538] | 11 ± 0.54
GTTATACACATATATACACACATATGTAGATATATA [CACACA_site7529] | 10.04 ± 0.078
TATAATATTCCTTTTTAACACACATATGAACAAATA [CACACA_site7932] | 10.1 ± 0.18
ATAAATAAATAAATACGTACATATATATATATATAT [XGTACX_site8838] | 11.5 ± 0.93
TAAAGTACAGGAGTAAATTGAAAAAAAAAAAAAAAA [CACACA_negctrl_site1410] | 10.9 ± 1
ATACATATATTTTTATGTACATATATTTTTTTTGTA [XGTACX_site4546] | 11.3 ± 0.73
ATATGTTAAAAATTCACACAAAAAAGTATACAGATA [CACACA_site4179] | 10.3 ± 0.19
TATGAATGCTTTTATGCACACGTACAAAAATATTAT [CACACA_site8851] | 11.4 ± 0.77
AACACTCAAAAAAATTTAAATAAAAAAAAAAAAAAA [CACACA_negctrl_site680] | 9.51 ± 0.29
ATGATTTTTTTTATTTTTTAGCTAGAGCTAGCTTAT [CACACA_negctrl_site433] | 9.66 ± 0.042
TATGGAAGAAAATATACACACAAAAAAAAAAAATGG [CACACA_site4924] | 10.23 ± 0.092
ACATGTTTCATATGTTGTACTAACTTAAATATAAAT [XGTACX_site6412] | 11.2 ± 0.72

Sequence | gcPBM binding intensity (ln)
TTACCTATTCTAAAATGTACACATTATATATGTGCT [XGTACX_site5776] | 11.3 ± 0.64
TGTATATTTGTTGTTACACACATATATTTTTTTTTT [CACACA_site128] | 9.895 ± 0.049
TTGTACATCTTTTGCACACGTAATGTTATTAAAATA [CACACA_site4827] | 11.3 ± 1
TTAACTATAATAAAATGTACATATGTAACATATATA [XGTACX_site7790] | 11 ± 0.51
TTATAACAAAAAATTAAAGAAAGAGAATAAGTGAAA [CACACA_negctrl_site975] | 10.02 ± 0.057
AGGTCCTACACCAATAAATATCATATATATATTATA [CACACA_negctrl_site568] | 10.1 ± 0.27
GGTTAGACGAAATATACATGCAATGGAAAATAAGTT [TGCATGCA_site23] | 10.12 ± 0.014
ATATTAATTTCTCATGCATGTTCTTCCCAATTGTAA [TGCATGCA_site425] | 10 ± 0.057
CTTTTTGAAATATTAACACACATTTTGTTAATGAAT [CACACA_site6087] | 9.845 ± 0.021
TATAAGTAGATAAGGGTGCACAATATAAATATATAG | 10.7 ± 0.73
TCATCATGTATGTACACACATACATATATTATGTAC [CACACA_site1386] | 11.7 ± 0.8
TCCTTAATTCAAAAAATAATATCTTATATTTCAAAT [CACACA_negctrl_site1592] | 9.84 ± 0.45
CACAAGAAAATTCACACACACACATATATATATATA [CACACA_site3880] | 10.1 ± 0.3
GGAATAAAGACAGCACGTACATATCTTACGAAGCTC [XGTACX_site3918] | 11.4 ± 1
ATATTTATATTTTCATGTACGTATTTTTATATATAT [XGTACX_site8478] | 11.6 ± 0.96
TATTTTTTTTGTCATATATAAGAAACGCTCTTCTTT [TGCATGCA_negctrl_site127] | 9.895 ± 0.007
AAATAAAAGATATTTTTACACACTTTTGATGAGATC [CACACA_site9000] | 9.915 ± 0.021
TGAAATAAAATTTGTACACACATATTTATTTATATA [CACACA_site6421] | 11.2 ± 0.97
TGCATTATATTAAATTTTTTATTTGTTGATGTTATA [GTGCAC_negctrl_site371] | 9.64 ± 0.11
TTGTATTTATTTATGGGAGGATTATAATCATTGTAG [GTGCAC_negctrl_site268] | 10.01 ± 0.035
TAATTCACATTTTATACACACATTCGAACCTTTTTT [CACACA_site3341] | 9.94 ± 0.14
ATATATATACATATAACACACACATATATATATATA [CACACA_site8827] | 10.2 ± 0.61

Sequence | gcPBM binding intensity (ln)
TATAGTCAACTAGTCACACATATAATTATATATATA [CACACA_site5872] | 10.1 ± 0.22
TATAAAGAAATCATTACACACAAATAAATACATACA [CACACA_site2675] | 10 ± 0.13
ATTTTTATTAGTTATTGTACTTATTATTTATTAATT [XGTACX_site2568] | 11.4 ± 0.89
TATAGATATATACGGTGTACATACATAAAAAAAAAA [XGTACX_site1648] | 11.4 ± 0.91
CATGACATAAAAAATATACACACTATAATATATATA [CACACA_site1402] | 9.94 ± 0.28
GTAAGAATATTTATAAATGTATAATTTGTATTATTT [GTGCAC_negctrl_site667] | 9.8 ± 0.042
TAAAATATCATAGATAGTACATATAACGTTTTATAT [XGTACX_site5666] | 10.7 ± 0.42
ATCGAAATTTTAGAATATATATGATGTTACTTAAGT [GTGCAC_negctrl_site611] | 9.75 ± 0.23
AGTTAATTAATAGGCACACATATATATGTATAAATA [CACACA_site523] | 10.355 ± 0.007
AAATATATTATATTTAGTACGCATATATAATATGCA [XGTACX_site4835] | 11 ± 0.71
ATGAAAATTTATATTGCACACATAGGGAATAAAAAA [CACACA_site8667] | 10.22 ± 0.057
ACCATATAAATAAACACACACACACCCATATATATA [CACACA_site2321] | 10.1 ± 0.19
GTTAAACTTAATATCGGTACACACACAAGATAAGAA [XGTACX_site1660] | 11.2 ± 0.7
ATAATATGTATAATCACACATTTTTCTTTTAAGACA [CACACA_site5297] | 9.85 ± 0.16
TATATATCTATATTTACACACAGTTACTATGTAGAT [CACACA_site7532] | 9.755 ± 0.049
CTAAGGTATGATTAATCACACACATAAATATATATA [CACACA_site8847] | 9.79 ± 0.11
GGTTCATTAAAGTGTACACATAAATACCGTAACATT [CACACA_site6002] | 11.9 ± 1
TAATTTAAAATATATAGTACACACGTGAACACAAAT [XGTACX_site792] | 11.6 ± 0.69
CTATTACATTAAATGTGTACATATATATATATATAT [XGTACX_site5233] | 11.6 ± 0.96
GTAAATACACATATGTGTACATATATATATATATAT [XGTACX_site3696] | 11.5 ± 0.86
AGAATAAGAATTATTAGTACTTATAAATATTATATT [XGTACX_site7228] | 10.9 ± 0.58
GTGGCTACTATATATTGTACGATATTATATATATAC [XGTACX_site8376] | 11.1 ± 0.6

Sequence | gcPBM binding intensity (ln)
TCTTATGAATATCCCCGTACACATATATTTCTTATA [XGTACX_site6877] | 11.3 ± 0.69
TTGTTTTTGTTCTTGGGTACTTAAATTATAAATGAT [XGTACX_site113] | 11.3 ± 0.79
AGCTACACACCACAATGTACATAAATATATATGTGA [XGTACX_site1483] | 11 ± 0.54
TTATATTATACATACACACCCATATAATATGTTTTT [CACACA_site4636] | 10.02 ± 0.085
ATATATTTATATAAATGTACATACAGCACATTTATA [XGTACX_site4725] | 10.8 ± 0.59
CAAATATACATATGTAGTACATGTTGTAGATAATTT [XGTACX_site2790] | 11.5 ± 0.85
GGATAATATATTAGAACACACATATAGATGTAAAAA [CACACA_site6229] | 10.06 ± 0.021
TACTTTATATAAAGATCAAAAAATAAATAATTATAA [TGCATGCA_negctrl_site446] | 9.985 ± 0.021
GAAGCCCTATGAAAAGTGCGGTTCATGAACAAAGAA [GTGCAC_site9828] | 10.1 ± 0.11
AGAATATTTAATTCAACACACATACATATTTATTAA [CACACA_site5318] | 9.81 ± 0.17
TATTGTATATACTATACACACACATACATACATACA [CACACA_site8172] | 10.6 ± 0.37
TTTGAATCCTTATATACACACATTATAAAATATTAT [CACACA_site6406] | 10.2 ± 0.23
ATAAGGAAGGGATGCACACAAAAGGGTACATAAGAA [CACACA_site4006] | 11.4 ± 0.71
TATTTGTAAATCGATACACACATATAGATTAATATA [CACACA_site6237] | 10.04 ± 0.057
ACCATTTGTAGGTAAACACACATTATTATTAATATC [CACACA_site2635] | 10.1 ± 0.18
ATGGATTATACGTGCACACATATATACAAATAAATA [CACACA_site640] | 10.6 ± 0.54
TACATCATACGAACAGTGCATATTATTATTGTTCTG | 9.955 ± 0.007
TAAAATGCAATCTGAACACACATATTTTTTTAATAT [CACACA_site6922] | 9.76 ± 0.17
ATGTATATTACTCATTGTACTTATATTTTCTTATTA [XGTACX_site8897] | 11.2 ± 0.74
TATATATCATATGATACATGCAACAAAATGCATAAT [TGCATGCA_site205] | 9.93 ± 0.13
TACTTACCAAAATACACACACACACTAGATATATAA [CACACA_site5096] | 10.1 ± 0.16
GGATATTCATTAACCACACACACAAAAAAAATAAAA [CACACA_site3800] | 10.2 ± 0.25
